Records with an inconclusive call do not appear. For part of its entries the source gives two or more results. Only these are listed. There may be further records. Values given together are repeated measurements in other runs, samples, wells, individuals or studies. Counts like (3×) count equal records among those shown.

The assay relates to BDF1 mice, s.c. Lewis lung carcinoma, T/C %. Put plainly: NCI In Vivo Anticancer Drug Screen. Data for tumor model Lewis Lung Carcinoma (subcutaneous) in B6D2F1 (BDF1) mice. The protocol: The antitumor activity of compounds was measured in mice bearing transplantable tumors. Survival or tumor size were measured and the results are expressed as the measurement made in the treated group (T) divided by the measurement made in the vehicle treated control group (C). The tumor model used in this assay is Lewis Lung Carcinoma (subcutaneous) in B6D2F1 (BDF1) mice

[1] abbreviates: endpoint: mean tumor weight, dose: 25.0 mg/kg/injection, schedule: Q01DX011 (ip), vehicle: carboxymethylcellulose (CMC), higher = larger tumour.
Setting [2] is: endpoint: mean tumor weight, dose: 250.0 mg/kg/injection, schedule: Q01DX011 (ip), vehicle: saline, higher = larger tumour.
Setting [3] is: endpoint: mean tumor weight, dose: 500.0 mg/kg/injection, schedule: Q01DX011 (ip), vehicle: saline, higher = larger tumour.
The mark [4] stands for this setting: endpoint: mean tumor weight, dose: 80.0 mg/kg/injection, schedule: Q01DX011 (ip), vehicle: other, higher = larger tumour.
Where [5] appears, read: endpoint: mean tumor weight, dose: 30.0 mg/kg/injection, schedule: Q01DX011 (ip), vehicle: other, higher = larger tumour.
The mark [6] stands for this setting: endpoint: mean tumor weight, dose: 125.0 mg/kg/injection, schedule: Q01DX011 (ip), vehicle: saline, higher = larger tumour.
The mark [7] stands for this setting: endpoint: mean tumor weight, dose: 50.0 mg/kg/injection, schedule: Q01DX011 (ip), vehicle: carboxymethylcellulose (CMC), higher = larger tumour.

In the case of `[Cl][Ni+2][Cl].[NH-]CCN1CC1`, the T/C by setting is: (endpoint: median survival time, dose: 3.12 mg/kg/injection, schedule: Q01DX009 (ip), vehicle: saline, higher = longer survival) 104 % of control and 187 % of control; (endpoint: median survival time, dose: 6.25 mg/kg/injection, schedule: Q01DX009 (ip), vehicle: saline, higher = longer survival) 106 % of control and 186 % of control. Take `CS(=O)(=O)OCCCCOS(C)(=O)=O`: under setting [1], the T/C was 61 % of control and 89 % of control. `CCN(CC)C(=S)S`: the T/C runs as follows: under setting [2], 89 % of control and 150 % of control; under setting [3], 68 % of control and 119 % of control.

Regarding `CC(=O)[C@H]1CC[C@H]2[C@@H]3CC[C@@H]4CC(=O)CC[C@]4(C)[C@H]3[C@@H]3O[C@@H]3[C@]12C`, for the setting “endpoint: mean tumor weight, dose: 125.0 mg/kg/injection, schedule: Q01DX011 (ip), vehicle: other, higher = larger tumour”, the T/C is 115 % of control and 170 % of control. In the case of `CCCC(Sc1nc(N)nc2nc[nH]c12)C(=O)O` (centres undefined), under setting [4], the T/C was 55 % of control and 93 % of control. Consider `Cc1cccc(NC(=O)N(CCCl)N=O)c1`, for which the T/C (endpoint: median survival time, dose: 1.5 mg/kg/injection, schedule: Q01DX009 (ip), vehicle: saline with Tween-80, higher = longer survival) was 112 % of control and 161 % of control. As for `CCn1cnc2c(=S)nc(N)[nH]c21`, the T/C under setting [5] is 5 % of control and 52 % of control. With `CCCCCC/C=C/C#CCCCCCCCC(=O)O`, where the note is “endpoint: median survival time, dose: 150.0 mg/kg/injection, schedule: Q01DX009 (ip), vehicle: Klucel (hydroxypropylcellulose) (HPC), higher = longer survival”, the T/C was 96 % of control and 150 % of control. With `O=CN1CCOCC1`, the T/C under setting [6] is 83 % of control and 112 % of control. In the case of `Nc1ccc(O)cc1`, the T/C (endpoint: mean tumor weight, dose: 75.0 mg/kg/injection, schedule: Q01DX011 (ip), vehicle: saline, higher = larger tumour) was 63 % of control and 115 % of control; the T/C (endpoint: mean tumor weight, dose: 150.0 mg/kg/injection, schedule: Q01DX011 (ip), vehicle: saline, higher = larger tumour) is 36 % of control and 68 % of control. Regarding `Clc1[nH]nc2ccccc12`, the T/C (endpoint: mean tumor weight, dose: 62.5 mg/kg/injection, schedule: Q01DX011 (ip), vehicle: saline, higher = larger tumour) is 46 % of control and 74 % of control.

`CCCCCCC(=O)NC1=C(N2CC2)C(=O)C(NC(=O)CCCCCC)=C(N2CC2)C1=O`: under “endpoint: mean tumor weight, dose: 15.0 mg/kg/injection, schedule: Q01DX011 (ip), vehicle: other, higher = larger tumour”, the T/C is 26 % of control and 85 % of control.

In the case of `CCN(CC)CC(C)Nc1ccc(C)c2sc3ccccc3c(=O)c12` (centres undefined), the T/C under setting [4] was 34 % of control and 122 % of control. Consider `CS(=O)(=O)OCCCCCCCCCOS(C)(=O)=O`, for which the T/C under setting [7] was 31 % of control and 69 % of control.

As for `CC(=O)OC1C=CC(=O)OC1C1OC1C` (centres undefined), the T/C (endpoint: mean tumor weight, dose: 13.0 mg/kg/injection, schedule: Q01DX011 (ip), vehicle: saline, higher = larger tumour) was 76 % of control and 114 % of control. As to `N[C@@H](Cc1ccc(N(CCCl)CCCl)cc1)C(=O)O`, the T/C (endpoint: median survival time, dose: 2.0 mg/kg/injection, schedule: Q01DX009 (ip), vehicle: saline, higher = longer survival) is 123 % of control and 168 % of control.

With `C1CCNC1`, where the note is “endpoint: mean tumor weight, dose: 12.5 mg/kg/injection, schedule: Q01DX011 (ip), vehicle: saline, higher = larger tumour”, the T/C is 58 % of control and 107 % of control. As for `CNC=O`, the T/C under setting [6] was 67 % of control and 113 % of control.

Take `NCCCOc1ccc([N+](=O)[O-])cc1Cl`: the T/C (endpoint: median survival time, dose: 25.0 mg/kg/injection, schedule: Q01DX009 (ip), vehicle: saline, higher = longer survival) is 107 % of control and 150 % of control. Take `C[C@@H]1C[C@@H]([C@H](O)CC2CC(=O)NC(=O)C2)C(=O)[C@@H](C)C1`: the T/C (endpoint: mean tumor weight, dose: 7.5 mg/kg/injection, schedule: Q01DX011 (ip), vehicle: carboxymethylcellulose (CMC), higher = larger tumour) is 75 % of control and 102 % of control. Take `CC1CCC(NC(=O)N(CCCl)N=O)CC1` (centres undefined): under “endpoint: median survival time, dose: 8.0 mg/kg/injection, schedule: Q01DX009 (ip), vehicle: Klucel (hydroxypropylcellulose) (HPC), higher = longer survival”, the T/C is 95 % of control (2×) and 153 % of control. For `N#Cc1ccc(S(N)(=O)=O)cc1`, the T/C under setting [1] was 47 % of control and 117 % of control. Take `COc1ccc(-c2cc(=O)c3c(OC)c(OC)c(OC)c(OC)c3o2)cc1OC`: the T/C is 48 % of control and 80 % of control (endpoint: mean tumor weight, dose: 100.0 mg/kg/injection, schedule: Q01DX011 (ip), vehicle: saline, higher = larger tumour); 39 % of control and 82 % of control (endpoint: mean tumor weight, dose: 400.0 mg/kg/injection, schedule: Q01DX011 (ip), vehicle: saline, higher = larger tumour). As to `O=c1[nH]c(=O)n(C2CC(O)C(CO)O2)cc1F` (centres undefined), where the note is “endpoint: median survival time, dose: 100.0 mg/kg/injection, schedule: Q01DX009 (ip), vehicle: saline, higher = longer survival”, the T/C was 95 % of control and 181 % of control. Regarding `Nc1nc(SCc2ccccc2Cl)c2[nH]cnc2n1`, under setting [5], the T/C is 29 % of control and 86 % of control. Consider `CCOC(=O)NP(=O)(N1CC1)N1CC1`, for which, where the note is “endpoint: mean tumor weight, dose: 10.0 mg/kg/injection, schedule: Q01DX011 (ip), vehicle: saline, higher = larger tumour”, the T/C was 20 % of control and 57 % of control.

As to `NC(=S)N/N=C/c1nccc2ccccc12`, the T/C (endpoint: median survival time, dose: 75.0 mg/kg/injection, schedule: Q01DX009 (ip), vehicle: saline with Tween-80, higher = longer survival) was 111 % of control and 152 % of control. `Cn1c(O)c(N=NC(N)=S)c2ccccc21`: the T/C by setting is: (endpoint: mean tumor weight, dose: 30.0 mg/kg/injection, schedule: Q01DX011 (ip), vehicle: carboxymethylcellulose (CMC), higher = larger tumour) 45 % of control and 83 % of control; (endpoint: mean tumor weight, dose: 60.0 mg/kg/injection, schedule: Q01DX011 (ip), vehicle: carboxymethylcellulose (CMC), higher = larger tumour) 53 % of control and 121 % of control; (endpoint: mean tumor weight, dose: 240.0 mg/kg/injection, schedule: Q01DX011 (ip), vehicle: carboxymethylcellulose (CMC), higher = larger tumour) 41 % of control, 55 % of control, 82 % of control. Take `CN1CC(=O)NC1=O`: the T/C reads like this: under setting [2], 60 % of control, 75 % of control, 113 % of control; under setting [3], 53 % of control, 76 % of control, 85 % of control; (endpoint: mean tumor weight, dose: 1000.0 mg/kg/injection, schedule: Q01DX011 (ip), vehicle: saline, higher = larger tumour) 36 % of control, 96 % of control, 105 % of control. On to `CCc1ccccc1N1CCN(C(=O)c2cc(OC)c(OC)c(OC)c2)CC1`, for which the T/C under setting [7] was 18 % of control and 58 % of control. Turning to `CC1CN1P(=S)(N1CC1C)N1CC1C` (centres undefined), for the setting “endpoint: mean tumor weight, dose: 35.0 mg/kg/injection, schedule: Q01DX011 (ip), vehicle: carboxymethylcellulose (CMC), higher = larger tumour”, the T/C is 34 % of control and 61 % of control.

For the origin of these results see PubChem BioAssay AID270 (DTP/NCI, 2004).
